{"source": "the supplement of paper PMC3334620", "note": "The full ranking holds about 33,000 sequences; the median of “E-score (-0.5 to 0.5)” is about -0.016, and the highest 2% start at about 0.32. The list shows a part of the results."}
{"target": "T1, Stp1 (UniProt B3LFK1)", "T1 sequence": "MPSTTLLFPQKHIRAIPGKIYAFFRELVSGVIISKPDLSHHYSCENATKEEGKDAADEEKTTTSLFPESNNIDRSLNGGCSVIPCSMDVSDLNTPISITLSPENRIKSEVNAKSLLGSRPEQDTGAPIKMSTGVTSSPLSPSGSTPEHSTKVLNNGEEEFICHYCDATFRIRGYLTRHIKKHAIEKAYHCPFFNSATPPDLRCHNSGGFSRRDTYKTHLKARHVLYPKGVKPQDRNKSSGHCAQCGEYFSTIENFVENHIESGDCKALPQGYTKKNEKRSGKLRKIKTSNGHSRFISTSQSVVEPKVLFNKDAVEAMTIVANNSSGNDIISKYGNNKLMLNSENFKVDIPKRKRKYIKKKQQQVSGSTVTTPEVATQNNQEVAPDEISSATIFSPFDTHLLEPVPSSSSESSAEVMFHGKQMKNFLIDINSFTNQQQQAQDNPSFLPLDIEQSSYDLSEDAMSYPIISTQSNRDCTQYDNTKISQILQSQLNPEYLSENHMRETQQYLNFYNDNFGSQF", "assay": "PBM E-score (8-mer binding enrichment) (E-score (-0.5 to 0.5)); higher = stronger / more preferred TF binding; most listed sequences are background and not binding sites", "settings": "protein concentration: 200 nM; construct: GST-full length", "method_in_brief": "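Using PURExpress in vitro transcription/translation, GST-tagged yeast transcription factors were made in full-length or DNA-binding-domain form. These were applied at about 100-200 nM to double-stranded universal all-10-mer Agilent arrays, and bound protein was detected with fluorescent anti-GST. Scans were normalised with masliner before the Universal PBM Analysis Suite assigned E-scores to ungapped eight-base words pooled with their reverse complements.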"}
{"sequence": "AATATATT", "PBM E-score": 0.279}
{"sequence": "CTTGAACC", "PBM E-score": -0.0677}
{"sequence": "AACGCCTG", "PBM E-score": 0.0127}
{"sequence": "CACTTACG", "PBM E-score": 0.0989}
{"sequence": "CCATAAAA", "PBM E-score": 0.0605}
{"sequence": "ACAATATG", "PBM E-score": 0.204}
{"sequence": "ACATCACC", "PBM E-score": -0.163}
{"sequence": "AGGCAACG", "PBM E-score": 0.0557}
{"sequence": "GATTGGTA", "PBM E-score": 0.0927}
{"sequence": "CCTGAAAG", "PBM E-score": 0.0268}
{"sequence": "CGGAAGTC", "PBM E-score": -0.0363}
{"sequence": "AGCTTTGA", "PBM E-score": -0.174}
{"sequence": "AAAGAGTA", "PBM E-score": 0.172}
{"sequence": "ACCCGGCC", "PBM E-score": -0.225}
{"sequence": "CTTTGTGA", "PBM E-score": 0.00752}
{"sequence": "CCTTCTCA", "PBM E-score": -0.152}
{"sequence": "GGCCCTAC", "PBM E-score": -0.265}
{"sequence": "GCGCGCGC", "PBM E-score": 0.396}
{"sequence": "GACCACAC", "PBM E-score": -0.0789}
{"sequence": "GACCCCTC", "PBM E-score": -0.368}
{"sequence": "CAGCGCTA", "PBM E-score": 0.0165}
{"sequence": "TACGGTAA", "PBM E-score": 0.157}
{"sequence": "CCTGACCC", "PBM E-score": -0.173}
{"sequence": "CTAACCAA", "PBM E-score": 0.079}
{"sequence": "AGAAGGCT", "PBM E-score": -0.102}
{"sequence": "GGGAGTGA", "PBM E-score": -0.0488}
{"sequence": "AACCCGAT", "PBM E-score": -0.0435}
{"sequence": "CAGCCGGC", "PBM E-score": 0.153}
{"sequence": "CAGGGTAC", "PBM E-score": -0.283}
{"sequence": "ATACTGAT", "PBM E-score": 0.162}
{"sequence": "GCTGAACA", "PBM E-score": 0.0152}
{"sequence": "GGCTTCAA", "PBM E-score": 0.221}
{"sequence": "CCGTAGTA", "PBM E-score": 0.105}
{"sequence": "ATAAAGTC", "PBM E-score": 0.139}
{"sequence": "AGGTTATA", "PBM E-score": -0.0417}
{"sequence": "CCTCGAAG", "PBM E-score": -0.0677}
{"sequence": "ACAAGGTA", "PBM E-score": -0.0272}
{"sequence": "AGTTAAAA", "PBM E-score": 0.197}
{"sequence": "GCCCCTAC", "PBM E-score": -0.188}
{"sequence": "GGATAGCC", "PBM E-score": 0.0249}
{"sequence": "GTAGTCAA", "PBM E-score": 0.00301}
{"sequence": "AAGTGTTC", "PBM E-score": -0.0432}
{"sequence": "CGGGAACC", "PBM E-score": -0.261}
{"sequence": "AAGTATGA", "PBM E-score": -0.0122}
{"sequence": "AAGAGAAT", "PBM E-score": 0.0337}
{"sequence": "ATTGCTAC", "PBM E-score": 0.0429}
{"sequence": "TCGTAAGA", "PBM E-score": -0.00593}
{"sequence": "GTGTAACA", "PBM E-score": 0.0681}
{"sequence": "CCGAACAC", "PBM E-score": 0.0129}
{"sequence": "CTCCAGCA", "PBM E-score": -0.266}
{"sequence": "ATGACCAA", "PBM E-score": -0.0118}
{"sequence": "AAAGGACC", "PBM E-score": 0.0732}
{"sequence": "CTCTGAGC", "PBM E-score": -0.22}
{"sequence": "GGTCCACA", "PBM E-score": -0.113}
{"sequence": "AACACTCG", "PBM E-score": 0.0624}
{"sequence": "CTGGCCCC", "PBM E-score": -0.311}
{"sequence": "CTACTGGC", "PBM E-score": -0.0297}
{"sequence": "AATAGCGC", "PBM E-score": 0.193}
{"sequence": "ATGTCGAC", "PBM E-score": 0.0335}
{"sequence": "GCCTCGCC", "PBM E-score": 0.314}
{"sequence": "AAATGAGG", "PBM E-score": -0.0464}
{"sequence": "AGGGTGTA", "PBM E-score": -0.0304}
{"sequence": "AGCGCACC", "PBM E-score": -0.119}
{"sequence": "GATTCACC", "PBM E-score": -0.206}
{"sequence": "GTCGACCA", "PBM E-score": -0.0268}
{"sequence": "ACGGTCGC", "PBM E-score": -0.12}
{"sequence": "AGGCTACT", "PBM E-score": -0.113}
{"sequence": "GTCATGAA", "PBM E-score": 0.0695}
{"sequence": "AATGTGAT", "PBM E-score": -0.103}
{"sequence": "CTCGTCCA", "PBM E-score": 0.136}
{"sequence": "AAGATCGA", "PBM E-score": 0.0364}
{"sequence": "CATTAAGC", "PBM E-score": 0.083}
{"sequence": "CTGTCATC", "PBM E-score": -0.21}
{"sequence": "TCGACGCA", "PBM E-score": 0.022}
{"sequence": "ACCTTTAA", "PBM E-score": -0.117}
{"sequence": "GTATATAC", "PBM E-score": -0.0138}
{"sequence": "AAACTCCG", "PBM E-score": 0.0574}
{"sequence": "CACTAGCG", "PBM E-score": -0.039}
{"sequence": "CCAGGGTA", "PBM E-score": -0.276}
{"sequence": "GATTACTA", "PBM E-score": 0.0291}
{"sequence": "AAACCCCG", "PBM E-score": 0.00861}
{"sequence": "ACGAGCAT", "PBM E-score": -0.218}
{"sequence": "CCGTACTA", "PBM E-score": 0.206}
{"sequence": "GCGGGCTA", "PBM E-score": -0.188}
{"sequence": "GCACAAGA", "PBM E-score": 0.176}
{"sequence": "TCCCGAGA", "PBM E-score": -0.045}
